According to the supplement of paper PMC3724861:
This is one part of the list.

tested on: T1, Caupolican (Caup) homeodomain DNA-binding domain; assay: PBM E-score (8-mer, recovered from the published 9-mer minima) (E-score (dimensionless, -0.5 to 0.5)); Drosophila protein; higher = stronger relative binding preference, active = 0.31 or more
T1 sequence: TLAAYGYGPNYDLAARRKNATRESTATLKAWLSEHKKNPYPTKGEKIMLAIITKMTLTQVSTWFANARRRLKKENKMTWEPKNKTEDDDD
In short: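 Caup's homeodomain DNA-binding domain (residues 214-303) was made by in vitro transcription and translation and applied at 100 nM to custom-designed protein binding microarrays. Each value is an enrichment score that gives relative binding preference for a short DNA word, with higher meaning stronger. The 8-mer values were recovered from published 9-mer scores, each of which was the minimum of its two constituent 8-mer scores. A cutoff of 0.31 marks candidate sites.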

Row | Sequence | PBM E-score
1 | TATCACAA | inactive: 0.208
2 | CTTTTGTC | inactive: 0.0876
3 | CCCTTCAC | inactive: -0.115
4 | GGTTCGTA | inactive: -0.0336
5 | GGTACTCA | inactive: 0.0276
6 | ATAGCGAT | inactive: 0.0345
7 | AAGGCTGT | inactive: -0.0057
8 | CGCGGTAA | inactive: -0.00355
9 | AGGGCCTC | inactive: -0.199
10 | GGTCGAAA | inactive: -0.106
11 | GACCCTAC | inactive: -0.138
12 | ATCATCAA | inactive: 0.062
13 | ATTCTCTC | inactive: -0.0907
14 | TCGATGAA | inactive: 0.046
15 | TAGCGGGA | inactive: -0.169
16 | GCTACAAC | inactive: 0.169
17 | CGCTCGTA | inactive: 0.0346
18 | CTACAATA | inactive: 0.228
19 | TAACTGCA | inactive: 0.0888
20 | AAGTGAGA | inactive: -0.0758
21 | CCGGAAGC | inactive: -0.199
22 | ACAGTAAG | inactive: 0.0415
23 | ATTCAACC | inactive: 0.0253

Row | Sequence | PBM E-score
24 | TAAGTGGA | inactive: 0.0584
25 | AGTCGCTG | inactive: -0.0199
26 | GTCAAGCA | inactive: -0.0651
27 | AGTTAAAT | inactive: 0.11
28 | GTCCCTCA | inactive: -0.126
29 | CGGTCTCA | inactive: -0.0553
30 | GGGCATGA | inactive: -0.0903
31 | CCCCGATC | inactive: -0.274
32 | CTATATTC | inactive: 0.0189
33 | CTAATGGA | inactive: -0.0695
34 | ACGAGGCT | inactive: -0.0132
35 | GTTCCGAA | inactive: 0.0909
36 | AGTACACT | inactive: 0.181
37 | TCAGCAGA | inactive: -0.0495
38 | AACTGGTA | inactive: 0.0223
39 | TTTCAAAA | ≥ 0.132
40 | TAGGGGGA | inactive: -0.243
41 | AACACCAG | inactive: 0.137
42 | CCGAGCAG | inactive: -0.0223
43 | ATTAACCA | inactive: 0.14
44 | CCTCCGGA | inactive: -0.172
45 | GTGTTTTA | inactive: 0.213
46 | AACGAGGT | inactive: 0.0473

Row | Sequence | PBM E-score
47 | AGGGGGAC | inactive: -0.287
48 | CCAGGTGA | inactive: -0.00212
49 | ACCGCTTC | inactive: -0.14
50 | ACATGACA | active: ≥ 0.43
51 | AAATCAAG | inactive: 0.0444
52 | ATGGTATG | inactive: 0.132
53 | CCAAATAA | inactive: 0.126
54 | GTATCTTA | inactive: 0.14
55 | CCAATCTC | inactive: 0.0676
56 | ACCTAACC | inactive: 0.0148
57 | AAGAACTT | inactive: 0.0363
58 | TCGGCAGA | inactive: -0.0919
59 | ACCCAACC | inactive: -0.053
60 | GAGTAGGC | inactive: -0.142
61 | CACCTGGC | inactive: -0.082
62 | ATACCACA | inactive: 0.0715
63 | ATACGGTA | inactive: 0.0499
64 | GCGGTAGC | inactive: -0.103
65 | ATAATGAT | inactive: 0.14
66 | CTTTCTCA | inactive: -0.0121
67 | GAAAAAAC | inactive: 0.0292
68 | AGATGGAG | inactive: -0.0743
69 | CTTGATGC | inactive: -0.0664

Row | Sequence | PBM E-score
70 | AGGTGCCA | ≥ -0.0596
71 | GCGTCTCC | inactive: -0.136
72 | CGTGTTCC | inactive: 0.257
73 | CGAGACCC | inactive: -0.136
74 | CTTCGTTC | inactive: -0.0801
75 | GAGACGAA | inactive: -0.0944
76 | AGCACGCG | inactive: -0.0415
77 | ACTCATTG | inactive: 0.0883
78 | AGCTTGGC | inactive: -0.157
79 | GGGAGTAA | inactive: 0.0271
80 | GTGACACA | inactive: 0.245
81 | CTATTCAA | inactive: 0.142
82 | AGGGGTAC | inactive: -0.0164
83 | ACCGGGAA | inactive: -0.0392
84 | CAGACGCG | inactive: -0.161
85 | AGCTCCGA | inactive: -0.0667
86 | CCGCTAAG | inactive: -0.145
87 | AGTAGATG | inactive: 0.106
88 | CAGGCCAC | inactive: -0.175
89 | ACTTAGGA | inactive: -0.0286
90 | GTAGTTAA | inactive: 0.201
91 | GCCTTTGA | inactive: 0.0423
92 | GGAGCCCA | inactive: -0.218

Row | Sequence | PBM E-score
93 | GACTGTAA | inactive: 0.127
94 | GGGGCCAA | inactive: -0.269
95 | AGAGCTGG | inactive: -0.0349
96 | CAGATGAG | inactive: 0.0267
97 | ATCGGTTC | inactive: -0.021
98 | AGCCTTCC | inactive: -0.243
99 | TACGGCTA | inactive: -0.0377
100 | AGCCATGG | inactive: -0.0528
101 | AACGGCTT | inactive: -0.147
102 | GCAGGTGA | inactive: -0.0486
103 | CTCATGTC | inactive: 0.306
104 | CGTGGGGA | inactive: -0.131
105 | AGGGCCAT | inactive: -0.116
106 | GTTCGTCA | inactive: 0.0192
107 | AGCCCTGC | inactive: -0.232
108 | TAAACCGA | inactive: 0.0913
109 | CTAGGGCC | inactive: -0.235
110 | CCGATCAC | inactive: 0.049
111 | CTGTATCC | inactive: 0.2
